SMILES strings stand for the structures. Hit rate of the full screen: of about 48,000 compounds, about 450 (0.94%) were called active. Roughly 19% stayed inconclusive and do not appear here. Calls come from the whole dose curve; as a rule, active = well fitted inhibition curve with a large enough effect; inconclusive = small, poorly fitted or top-dose-only effect; inactive = no such curve, though single readings can be large or run the other way. The list shows a part of the results.

The nature of the assay: Primary qHTS for Identification of Small Molecule Inhibitors of Huntingtin Promoter Activity. Note: nearly all actives have a fitted effect of over 50% in size. Conditions: HEK293 HTT promoter firefly luciferase reporter (activity 0% = vehicle and -100% = no light), 24 h; series mostly up to 57.5 µM; activity change, negative = inhibition: at the top concentration. The method, boiled down: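 Luminescence was read after Dual-Glo reagent and a 10 min room-temperature incubation. Values were normalized to vehicle (0% activity) and zero RLU (-100% activity). Reporter HEK293 cells had been exposed to compounds (up to 57.5 uM final) for 24 h.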
On the technique in general: Quantitative high-throughput screening tests each substance at several concentrations.
With `Cc1ccc(C)c(NC(=O)C(=O)NCCc2csc(-c3ccc(C(F)(F)F)cc3)n2)c1`, the “activity change, negative = inhibition” value is inactive: -1.18%.
For the molecule `CCOC(=O)Cn1c(=O)cc(-c2ccccc2)c2c(C)nn(C)c21`, the “activity change, negative = inhibition” value is inactive: 0%.
Take `CCC(C)NC(=O)Cn1c(=O)n(-c2ccc(C)cc2)c(=O)c2ccccc21` (configuration not stated): the “activity change, negative = inhibition” value was inactive: -15.3%.
The figure for `CCc1ccccc1N(CC)C(=O)c1cc2c(s1)-c1ccccc1OC2` is inactive: -20.8%; for `CCc1ccc(-n2nc(CO)c(C(=O)NCc3ccccn3)n2)cc1` it is inactive: 0.887%; for `Cc1ccccc1CSc1nc2nc(C)c(Cc3ccccc3)c(C)n2n1` it is inactive: 7.15%.
The same measure for `COc1ccc(OC)c(CCNC(=O)c2ccc(CS(=O)Cc3cccc(Cl)c3)o2)c1` (configuration not stated): inactive: -7.84%.
The same measure for `Cc1nc(-c2ccccc2)sc1-c1ccc(SCC(=O)Nc2ccc(F)cc2F)nn1`: inactive: -1.2%; for `Cc1oc2ncnc(N3CCCCC3)c2c1C(=O)NCC1CCN(Cc2ccc(F)cc2)CC1`: inactive: -9.46%; for `CCC(CC)c1nn2c(=O)cc(COc3ccc(NC(=O)c4ccc(Cl)cc4)cc3)nc2s1`: inactive: -5.62%.
On to `COc1ccc(-n2ncc(C(=O)N3CCN(c4ccccn4)CC3)c2C2CCN(C(=O)OC(C)(C)C)CC2)cc1`, for which the “activity change, negative = inhibition” value is inactive: -0.427%.
The same measure for `CC(Sc1oc(-c2ccco2)nc1S(=O)(=O)c1ccc(Br)cc1)c1ccccc1` (configuration not stated): inactive: -24.5%.
The figure for `COCCNC(=O)c1c(NC(=O)Cc2coc3cc(C)ccc23)sc2c1CCCC2` is inactive: -31.7%; for `CCC(C)NC(=O)c1ccc2c(c1)N(Cc1cccc(Cl)c1)C(=O)c1ccccc1S2=O` (configuration not stated) it is inactive: -21.2%.
The same measure for `Nc1nc(-c2ccccc2)c(Br)c(=O)[nH]1`: inactive: 11.3%.
Turning to `CCOC(=O)c1cn(CC(=O)Nc2cccc(Cl)c2C)nn1`, the “activity change, negative = inhibition” value is inactive: -18.6%.
Turning to `Cc1nnc(N2CCN(c3ccccc3F)CC2)c2c1nnn2Cc1ccc(F)cc1`, the “activity change, negative = inhibition” value is inactive: -26.5%.
As to `CCOc1ccccc1NC(=O)C(NS(=O)(=O)c1cccc2nsnc12)c1ccccc1` (configuration not stated), the “activity change, negative = inhibition” value was inactive: -4.25%.
The same measure for `CCc1cccc(CC)c1NC(=O)c1cc(S(=O)(=O)N2CCc3ccccc32)cn1C`: inactive: -22.2%.
Turning to `Cc1ccc(CN2CCCn3nc(C(=O)NCCN(C)C)cc3C2=O)cc1`, the “activity change, negative = inhibition” value was inactive: -12.1%.
With `CCOC(=O)c1c(C)[nH]c(C)c1S(=O)(=O)N1CCC(C(=O)NCc2ccccc2)CC1`, the “activity change, negative = inhibition” value is inactive: -8.37%.
The figure for `Cc1ccc(C)c(OCCSc2nc3ccccc3n2CC(=O)N2CCOCC2)c1` is inactive: -12%; for `COc1ccc(NC(=O)Cc2coc3cc(C)cc(C)c23)c(OC)c1` it is inactive: -6.3%; for `COc1ccc2c(c1)c1c(c(=O)n(Cc3ccccc3)c(=O)n1Cc1cc(C)ccc1C)n2C` it is inactive: -10%.
The figure for `Cc1nn2c(=O)cc(COC(=O)c3ccccc3NC(=O)c3ccccc3C)nc2s1` is inactive: 38.2%; for `CC(C)C[C@H](NC(=O)[C@H](CCc1ccccc1)NC(=O)CN1CCOCC1)C(=O)N[C@@H](Cc1ccccc1)C(=O)N[C@@H](CC(C)C)C(=O)[C@@]1(C)CO1` it is inactive: -50%.
The figure for `Cc1ccc(S(=O)(=O)N2CCCC(c3nc4c(nnn4Cc4ccc(OC(F)(F)F)cc4)c(=O)[nH]3)C2)cc1` (configuration not stated) is inactive: -10.1%.
In the case of `CCOC(=O)c1ccc2c(c1)N(Cc1cccc([N+](=O)[O-])c1)C(=O)c1ccccc1S2`, the “activity change, negative = inhibition” value was inactive: -18.6%.
As for `CC(=O)Cn1nnc2sc(-c3ccccc3)cc2c1=O`, the “activity change, negative = inhibition” value was inactive: 56.6%.
In the case of `COc1ccc(-n2c(C)c([N+](=O)[O-])c3ccc(O)cc32)cc1`, the “activity change, negative = inhibition” value is inactive: -5.1%.
The figure for `COCCNC(=O)c1cc2n(n1)CCCN(Cc1ccc(C)cc1)C2=O` is inactive: -13.2%.
The same measure for `CN(Cc1ccccc1)C(=O)c1cc2c(=O)n(C)c3ccccc3c2s1`: inactive: 9.21%.
The same measure for `CCOC(=O)N1CCc2c(sc3c2c(=O)n(Cc2ccccc2)c(=O)n3Cc2c(F)cccc2Cl)C1`: inactive: -21.7%; for `CSc1cccc(N2C(=O)N(Cc3ccc([N+](=O)[O-])cc3)c3ccccc3S2(=O)=O)c1`: inactive: -7.45%.
Regarding `O=C1CC(c2nc3ccccc3n2Cc2c(F)cccc2Cl)CN1c1cccc(C(F)(F)F)c1` (configuration not stated), the “activity change, negative = inhibition” value was inactive: -15.4%.
With `COc1ccc(CC(=O)Nc2c(C(=O)Nc3ccccc3F)oc3ccccc23)cc1`, the “activity change, negative = inhibition” value is inactive: -4.35%.
As to `COc1ccc(NC(=O)CC2C(=O)N(c3ccc(C)cc3)C(=O)N2CCc2ccccc2)cc1` (configuration not stated), the “activity change, negative = inhibition” value is inactive: -33.7%.
Regarding `Brc1ccc(-c2cc3c(N4CCN(c5ccccc5)CC4)nccn3n2)cc1`, the “activity change, negative = inhibition” value was inactive: -7.99%.
With `O=C(O)c1[nH]n(-c2ccc(S(=O)(=O)O)cc2)c(=O)c1N=Nc1ccc(S(=O)(=O)O)cc1`, the “activity change, negative = inhibition” value was inactive: 2.19%.
As for `Cc1ccccc1NC(=O)c1sc2nc(-c3ccncc3)ccc2c1N`, the “activity change, negative = inhibition” value is inactive: -28.1%.
The figure for `CCOC(=O)c1ccc(N2C(=O)c3n[nH]c(-c4cccs4)c3C2c2ccc(C)cc2)cc1` (configuration not stated) is inactive: 0.594%; for `CCCN(CCC)CCCNC(=O)Cn1ncc2c3ccccc3n(Cc3ccc(F)cc3)c2c1=O` it is inactive: -15.3%; for `Cc1nc(C)c(-c2ccc(SCC(=O)Nc3ccccc3F)nn2)s1` it is inactive: 18.1%.
The same measure for `COCCCNC(=O)CCCn1c(=O)c2cccn2c2cccnc21`: inactive: -7.76%.
Take `COc1cccc(CNC(=O)CCNS(=O)(=O)c2cccc3nsnc23)c1`: the “activity change, negative = inhibition” value is inactive: -9.97%.
As for `Cc1cc2ccccc2n1-c1ccc(C(=O)N2CCCCC2)s1`, the “activity change, negative = inhibition” value is inactive: -17%.
Regarding `CCn1cc(S(=O)(=O)c2ccccc2)c(=O)c2cc(C)ccc21`, the “activity change, negative = inhibition” value is inactive: -22.5%.

Source of the values: PubChem BioAssay AID1508623 (National Center for Advancing Translational Sciences (NCATS), 2021).
